Source: PubChem BioAssay AID2147 (National Center for Advancing Translational Sciences (NCATS), 2009)
“And” between values parts separate entries of the source, which are not always exact repeats. Equal values may be shown once. Screen size: about 230,000 compounds; about 3,600 (1.6%) were called active. The shares of active, inactive and inconclusive entries below differ from those in the screen. The call rests on the fitted dose curve; in most records, active means well fitted inhibition curve with a large enough effect (not every such curve was filed as active); inconclusive means small, poorly fitted or top-dose-only effect, or another doubt; inactive means no such curve, though single readings can be large or run the other way. A potency beside an inconclusive call is a rough fit, not a confirmed value.

Each compound was assayed against Lysine-specific demethylase 4E (Homo sapiens) (UniProt B2RXH2) (assay: qHTS Assay for Inhibitors of Human Jumonji Domain Containing 2E (JMJD2E)). Conditions: JMJD2E catalytic domain, FDH-coupled NADH fluorescence (FDH is formaldehyde dehydrogenase); series mostly up to 57.1 µM; activity change, negative = inhibition: at the top concentration.
Further: nearly all actives have a fitted effect of over 50% in size.
Potency means the concentration at half of the fitted maximal effect; tags describe the fitted curve by direction and shape.
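Wherever activity change, negative = inhibition is given: 0% = wells with enzyme and -100% = buffer wells without enzyme.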

UniProt B2RXH2, sequence (B2RXH2 whole entry, looked up, the tested form may be a part): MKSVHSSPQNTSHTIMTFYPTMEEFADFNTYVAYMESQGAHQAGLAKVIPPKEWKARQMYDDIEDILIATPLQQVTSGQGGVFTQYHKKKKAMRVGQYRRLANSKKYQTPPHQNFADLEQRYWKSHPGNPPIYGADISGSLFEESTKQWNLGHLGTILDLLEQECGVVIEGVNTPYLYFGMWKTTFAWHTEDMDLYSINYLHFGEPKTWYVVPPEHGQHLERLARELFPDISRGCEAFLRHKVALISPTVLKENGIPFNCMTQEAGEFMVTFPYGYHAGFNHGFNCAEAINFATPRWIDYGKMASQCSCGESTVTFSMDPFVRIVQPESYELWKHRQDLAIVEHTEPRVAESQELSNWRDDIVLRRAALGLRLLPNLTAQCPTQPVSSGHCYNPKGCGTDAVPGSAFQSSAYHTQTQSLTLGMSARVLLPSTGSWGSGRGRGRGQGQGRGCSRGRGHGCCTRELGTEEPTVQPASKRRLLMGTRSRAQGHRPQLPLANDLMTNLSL

| Structure (SMILES) | Potency | activity change, negative = inhibition |
| --- | --- | --- |
| O=C(NCCN1CCOCC1)c1cc2ccccc2[nH]1 | inconclusive: 31.6 µM [inhibitor, partial curve] |  |
| CCC(C)(C)n1nnnc1C(c1cc2cccc(C)c2[nH]c1=O)N1CCN(C(=O)c2ccco2)CC1 (stereo unspecified) | inconclusive: 22.4 µM [inhibitor, partial curve] |  |
| O=C(Cc1c[nH]c2ccccc12)N/N=C/c1ccc(F)cc1 |  | inactive: -1.58% |
| COc1ccc(Nc2cnn(-c3nc4ccccc4s3)c(=O)c2Cl)cc1 |  | inactive: -6.81% |
| O=C(Nc1ccc2oc(-c3ccccc3)nc2c1)c1cccnc1 |  | inactive: 15.1% |
| C=CCNCC(=O)Nc1sc2c(c1C(=O)Nc1ccc(OC)cc1OC)CCC2 | inconclusive: 3.55 µM [inhibitor, single point] |  |
| Cc1cccc(Nc2cc(Cl)nc(SCC(=O)O)n2)c1C | inactive and inconclusive: 39.8 µM [inhibitor, single point] |  |
| C/C(=N\Nc1ccc(C(=O)O)cc1)c1ccc(S(=O)(=O)NCc2ccco2)cc1 |  | inactive: 0.962% |
| Nc1c(C(=O)N2CCCC2)sc2nc(-c3ccccc3)ccc12 | inconclusive: 28.2 µM [inhibitor, single point] |  |
| CCOC(=O)CCCNC(=O)COC(=O)/C=C/c1ccc2c(c1)OCO2 | inconclusive: 28.2 µM [inhibitor, partial curve] |  |
| O=C(c1ccncc1)N(c1ccc2oc3c(c2c1)CCCC3)S(=O)(=O)c1ccc(F)cc1 | inconclusive: 31.6 µM [inhibitor, single point] |  |
| CCC(=O)Nc1ccc(S(=O)(=O)Nc2cc(C)on2)cc1 |  | inactive: 3.51% |
| O=C(NCC1CCCO1)c1c(O)c2cccc3c2n(c1=O)CCC3 (stereo unspecified) | inconclusive: 25.1 µM [inhibitor, partial curve] |  |
| CCn1c(SCC(=O)N/N=C/C=C\c2ccco2)nc2ccccc21 | inconclusive: 39.8 µM [inhibitor, single point] |  |
| Cc1ccc(-c2nc3c(c(=O)[nH]c(=O)n3Cc3ccccc3)n2C)s1 | inconclusive: 31.6 µM [inhibitor, single point] |  |
| COc1ccc(OC)c2[nH]c(=O)c(CCNC(=O)Cc3cccs3)cc12 | inconclusive: 39.8 µM [inhibitor, single point] |  |
| O=C(CN1CCN(c2ccccc2)CC1)c1ccc2cc[nH]c2c1 | inconclusive: 28.2 µM [inhibitor, partial curve] |  |
| Cc1ccc(Cn2cc(/C=N/NC(=O)Cc3nnc(NC(=O)c4ccc(C)cc4)s3)c3ccccc32)cc1 |  | inactive: 13.6% |
| CS(=O)(=O)c1ccc2nc(NC(=O)c3ccc(=O)[nH]c3)sc2c1 | inconclusive: 25.1 µM [inhibitor, partial curve] |  |
| COc1ccc(/C=N/Nc2nc(-c3cccnc3)nc3ccccc23)c(OC)c1 | inconclusive: 28.2 µM [inhibitor, partial curve] |  |
| CCOC(=O)c1nnn(CC(=O)N2N=C(c3ccc(Cl)cc3)CC2c2ccccc2)c1C(=O)OCC (stereo unspecified) | inconclusive: 39.8 µM [inhibitor, single point] |  |
| O=C(NNC1CC(=O)N(c2ccccc2)C1=O)c1cccnc1 (stereo unspecified) |  | inactive: 3.8% |
| Cc1cccc(NC(=O)C2(c3cccs3)CCOCC2)n1 | inconclusive: 39.8 µM [inhibitor, single point] |  |
| Cc1ccc2nc(SCc3cn4c(C)cc(C)nc4n3)[nH]c2c1 | inconclusive: 39.8 µM [inhibitor, single point] |  |

| Structure (SMILES) | Potency | activity change, negative = inhibition |
| --- | --- | --- |
| CCOc1ccc(C(=O)OCc2nnc(-c3cccs3)o2)cc1OC |  | inactive: 0.409% |
| Cc1cccn2c(=O)c3cc(C(=O)NCc4ccco4)c(=N)n(CCc4ccccc4)c3nc12 | inconclusive: 25.1 µM [inhibitor, partial curve] |  |
| COc1ccc2c(c1)c(=O)oc1cc(OCC(=O)N3CCC(C)CC3)ccc12 | inconclusive: 28.2 µM [inhibitor, partial curve] |  |
| C=CCN1CCN(Cc2cnc(Cl)s2)CC1 |  | inactive: 1.31% |
| CCN(CC)CCCNc1nc(-n2nc(C)cc2C)nc2sc3c(c12)CC(C)(C)OC3 | inconclusive: 28.2 µM [inhibitor, single point] |  |
| COCCCNC(=O)c1ccccc1NS(=O)(=O)c1ccc(C)cc1 | inconclusive: 31.6 µM [inhibitor, single point] |  |
| Nn1c(Cc2cccc3ccccc23)n[nH]c1=S |  | inactive: -17.1% |
| Cc1ccc(Nc2cc(C)c3c(O)cccc3n2)cc1C | inconclusive: 28.2 µM [inhibitor, partial curve] |  |
| CC(C)(C)c1ccc(S(=O)(=O)N2CCCCC2C(=O)NCc2ccccn2)cc1 (stereo unspecified) |  | inactive: -6.25% |
| NC(=O)C1CCN(C(=O)CCCCCn2c(=O)[nH]c3ccsc3c2=O)CC1 | inconclusive: 31.6 µM [inhibitor, single point] |  |
| O=C(Cn1c(NCCO)nc2ccccc21)NCC1CCCO1 (stereo unspecified) |  | inactive: 8.54% |
| CCCn1c(=O)c(C(=O)Nc2ccccc2C(=O)OC)c(O)c2ccccc21 | inconclusive: 11.2 µM [inhibitor, partial curve] |  |
| CC(=NCc1ccncc1)C1=C(O)c2ccccc2C1=O | inconclusive: 39.8 µM [inhibitor, single point] |  |
| N#Cc1c(N)n(-c2ccc(O)cc2)c2nc3ccccc3nc12 | inconclusive: 35.5 µM [inhibitor, single point] |  |
| c1ccc(CCNc2nc(-c3ccncc3)cs2)cc1 | inconclusive: 28.2 µM [inhibitor, single point] |  |
| Cc1ccnc(NS(=O)(=O)c2ccc(NC(=O)c3cc(-c4ccc(Br)cc4)nc4ccccc34)cc2)n1 | inconclusive: 35.5 µM [inhibitor, single point] |  |
| Cc1ccc(-c2nc3ccccc3[nH]c2=O)cc1 | inconclusive: 35.5 µM [inhibitor, partial curve] |  |
| CCOC(=O)c1ccc(N2C(=O)c3n[nH]c(-c4ccco4)c3C2c2ccc([N+](=O)[O-])cc2)cc1 (stereo unspecified) |  | inactive: -10.8% |
| CSC1=C(C#N)C(c2ccccc2C)C(C#N)=C(N)N1 (stereo unspecified) | inconclusive: 25.1 µM [inhibitor, single point] |  |
| CCCn1c(-c2ccc(F)cc2)nc2c(NCCN3CCCC3)nc(C)nc21 | inconclusive: 35.5 µM [inhibitor, partial curve] |  |
| N#C/C(=C(/O)CN1CCN(c2ccccc2F)CC1)c1nc(-c2ccc(Cl)cc2)cs1 |  | inactive: 3.07% |
| N=c1c2c3c(sc2ncn1Nc1ccccc1)CCC3 | inconclusive: 35.5 µM [inhibitor, single point] |  |
| O=c1nc(-c2ccccc2)cc(-c2ccccc2)[nH]1 | inconclusive: 28.2 µM [inhibitor, partial curve] |  |
| COc1ccccc1-c1ccc(/C=C2/C=C(CC(C)C)OC2=O)o1 | inconclusive: 28.2 µM [inhibitor, partial curve] |  |

| Structure (SMILES) | Potency | activity change, negative = inhibition |
| --- | --- | --- |
| CC(C)c1nc2sc3c(=O)[nH]c(=S)[nH]c3c2c2c1CCCC2 |  | inactive: 2.43% |
| CC1=CC(C)(C(Cl)Cl)C(C)=CC1=O (stereo unspecified) |  | inactive: 0.995% |
| c1ccc(N2N=C(c3cccs3)CC2c2ccco2)cc1 (stereo unspecified) | inconclusive: 28.2 µM [inhibitor, partial curve] |  |
| COc1ccc(C)cc1-n1c(=O)c2ccccc2c2ccccc2c1=O |  | inactive: -17.1% |
| COc1ccc(-c2ncc(CN3CCC(CO)(Cc4cccc(OC)c4)CC3)cn2)cc1 | inconclusive: 39.8 µM [inhibitor, single point] |  |
| CCNc1cc2oc(=O)c(CN3CCOCC3)c(C)c2cc1C | inconclusive: 14.1 µM [inhibitor, partial curve] |  |
| CC(=O)[C@H]1[C@H](c2cccc(Cl)c2)C(C#N)(C#N)[C@@H]2c3ccccc3C=CN21 | inconclusive: 28.2 µM [inhibitor, single point] |  |
| COc1ccc(S(=O)(=O)N2CCN(S(=O)(=O)c3ccc4c(c3)OCCO4)CC2)cc1 | inconclusive: 31.6 µM [inhibitor, single point] |  |
| NC(=O)c1ncn([C@@H]2O[C@H](CO)[C@@H](O)[C@H]2O)c1O | inconclusive: 39.8 µM [inhibitor, single point] |  |
| Cc1ccc2nc(-c3ccc(NC(=O)CN4CCN(c5ccccn5)CC4)cc3)sc2c1 | inconclusive: 28.2 µM [inhibitor, partial curve] |  |
| COc1ccc(NC(=O)c2ccccc2-c2ccccc2)c(C)c1 |  | inactive: -6.83% |
| CC1CCCCN1Cc1nc2ccccc2c(=O)[nH]1 (stereo unspecified) |  | inactive: 6.48% |
| Oc1ccc2c(c1)C1CCCC1(N1CCOCC1)O2 (stereo unspecified) | active: 15.8 µM |  |
| CCn1c2ccccc2c2cc(N)ccc21 | inconclusive: 25.1 µM [inhibitor, partial curve] |  |
| CCOC(=O)N1CCc2c(sc3nc(SC(C)C)n(N)c(=O)c23)C1 |  | inactive: -5.8% |
| COC(=O)c1c(NC(=S)Nc2ccc(F)cc2[N+](=O)[O-])sc2c1CCCCC2 |  | inactive: -8.56% |
| CC(N)c1ccc(Cl)cc1Cl (stereo unspecified) |  | inactive: -2.44% |
| COc1cc(C2NCC(c3ccc(Cl)cc3Cl)c3c2[nH]c2ccccc32)cc(OC)c1OC (stereo unspecified) |  | inactive: 1.05% |
| N#CC1=C2SCN(Cc3ccco3)CN2C(=O)CC1c1ccc(Cl)cc1 (stereo unspecified) | inconclusive: 12.6 µM [inhibitor, partial curve] |  |
| Cc1cc(NS(=O)(=O)c2ccc(NS(=O)(=O)c3ccc(CC(C)C)cc3)cc2)nc(C)n1 | inconclusive: 39.8 µM [inhibitor, single point] |  |
| CCOC(=O)c1cc(-c2ccc(C)cc2)nc2nc(SC)[nH]c(=O)c12 | inconclusive: 25.1 µM [inhibitor, partial curve] |  |
| COc1ccc(NC(=S)Nc2ncccc2C)cc1OC | inconclusive: 39.8 µM [inhibitor, single point] |  |
| Nc1c(S(=O)(=O)c2cccc(Cl)c2)c2nc3ccccc3nc2n1CCN1CCOCC1 | inconclusive: 14.1 µM [inhibitor, single point] |  |
